According to ChEMBL document CHEMBL4888484, “Replenishing the malaria drug discovery pipeline: Screening and hit evaluation of the MMV Hit Generation Library 1 (HGL1) against asexual blood stage Plasmodium falciparum ,using a nano luciferase reporter read-out” (2022):
Screen size: about 150,000 compounds; about 540 (0.36%) showed an effect of 50% or more. The list shows a part of the results.

The molecules below were run on Plasmodium falciparum (assay: Primary screen in NF54 nanoGlo assay, in single point, at 2uM, 72h; a lower Z score goes with more inhibition). Conditions: timepoint 72 hour.
Assay type: functional, Erythrocyte
`O=S(=O)(Cc1nnc(C2CC2)o1)c1ccc(Br)cc1` was tested, and the “% Inhibition” value was -17% and the Z score was 2.57.
With `Cc1cc(-c2cc(S(=O)(=O)N[C@@H](C)c3ccc4c(c3)OCCO4)c(C)s2)[nH]n1` the “% Inhibition” value was -17% and the Z score was 1.73.
`Cn1cc(-c2nc([C@H]3CCOC3)no2)c2ccccc21` was tested, and the “% Inhibition” value was -3% and the Z score was 0.5.
`Cc1noc(C)c1NC(=O)NC[C@H]1CCN(Cc2ccccc2F)C1` was tested, and the “% Inhibition” value was -18% and the Z score was 1.75.
For `NC(=O)c1cc(Cl)ccc1OCC(=O)c1ccc2c(c1)-c1ccccc1C2`, the “% Inhibition” value was 1% and the Z score was -0.18.
`CCn1c(=O)c(N2CCN(C(=O)Nc3ccc(F)cc3F)CC2)nc2ccccc21` was tested, and the “% Inhibition” value was 36% and the Z score was -5.14.
In the case of `Cc1ccc2ncn(CC(=O)N3CC4(CNC(=O)O4)C3)c2c1`, the “% Inhibition” value is reported as -19% and the Z score is reported as 2.65.
With `CCN(C(=O)c1cnc(C)c(Br)c1O)C1CC1` the “% Inhibition” value was -9% and the Z score was 0.87.
In the case of `Cn1ncc2c(NC(c3cccs3)c3cccs3)ncnc21`, the “% Inhibition” value is reported as -7% and the Z score is reported as 1.05.
With `CC(C)(C)NCCCCOc1ccccc1F` the “% Inhibition” value was -8% and the Z score was 1.44.
In the case of `CC1CC(CNC(=O)N2CCN(c3nccnc3C#N)CC2C)C(C)O1` (centres undefined), the “% Inhibition” value is reported as -10% and the Z score is reported as 1.79.
In the case of `Cc1cc(NC(=O)[C@@H]2COc3ccccc3O2)ccc1N1CCCC1=O`, the “% Inhibition” value is reported as -17% and the Z score is reported as 2.27.
`CC1(C)CN(C(=O)NC2CCCC2)CC[C@]1(C)O` was tested, and the “% Inhibition” value was 7% and the Z score was -1.13.
With `CN1C(=O)NC(C)(C2CCCN(CCc3cccs3)C2)C1=O` (centres undefined) the “% Inhibition” value was -14% and the Z score was 1.64.
With `Clc1cnn(CCN2CCC[C@H]2COc2ccccc2)c1` the “% Inhibition” value was -1% and the Z score was 0.12.
For `Cc1nnc(CN2CC(C)(C)[C@@](C)(O)C2)s1`, the “% Inhibition” value was -16% and the Z score was 2.68.
For `CCCN1CCN(C(=O)Cn2cccc2-c2nc(-c3ccc(C)cc3)cs2)CC1`, the “% Inhibition” value was -10% and the Z score was 1.48.
`CCOC(=O)c1nccc(N2CCC[C@H](NCC(F)(F)F)C2)n1` was tested, and the “% Inhibition” value was 5% and the Z score was -0.61.
With `COc1cc2c(cc1CNCCc1cnn(-c3ccccc3)c1)OCCCO2` the “% Inhibition” value was 2% and the Z score was -0.4.
For `C[C@@H](CN1CCOCC1)NC(=O)c1ccccc1-c1nc[nH]n1`, the “% Inhibition” value was -7% and the Z score was 0.96.
For `Cc1cc(N2CCCCS2(=O)=O)cc(C)c1S(=O)(=O)N1CCCC1`, the “% Inhibition” value was -12% and the Z score was 1.74.
With `O=C1N[C@@]2(CCS(=O)(=O)c3ccc(F)cc32)C(=O)N1Cc1ccc(F)cc1` the “% Inhibition” value was -8% and the Z score was 0.64.
For `Cc1c(CN2C[C@H](C)OCC2(C)C)cc(C#N)n1C`, the “% Inhibition” value was -6% and the Z score was 0.66.
For `O=C(Cn1ccnc1-c1cccc(C(F)(F)F)c1)NCC1CC1`, the “% Inhibition” value was -6% and the Z score was 0.83.
In the case of `C[C@H]1CN(c2cc(CNC(=O)N(C)CC3CCC3)ccn2)CCO1`, the “% Inhibition” value is reported as 7% and the Z score is reported as -0.67.
In the case of `Cc1cccc(NC(=O)Nc2cccc3c2N(Cc2cc(=O)n(C)c(=O)n2C)CCC3)c1`, the “% Inhibition” value is reported as 4% and the Z score is reported as -0.59.
In the case of `CCCNC(=O)C(C)N1CC(C)CC(C)C1` (centres undefined), the “% Inhibition” value is reported as -11% and the Z score is reported as 1.57.
In the case of `COC(=O)c1c(F)cc(C#N)cc1N[C@H](CO)Cc1ccccc1`, the “% Inhibition” value is reported as -4% and the Z score is reported as 0.58.
With `O=C(NC1CC1)C1(F)CCN(S(=O)(=O)c2cccnc2)CC1` the “% Inhibition” value was -13% and the Z score was 1.62.
With `C[C@@H](CO)NC(=O)Nc1cccc(Cl)c1` the “% Inhibition” value was 29% and the Z score was -3.86.
In the case of `Cc1cccc(OC(=O)c2cnn(C)c2)c1F`, the “% Inhibition” value is reported as -11% and the Z score is reported as 1.09.
`O=C(c1cnc2nccnc2c1)N1CC[C@H]1C1CCCC1` was tested, and the “% Inhibition” value was -5% and the Z score was 0.85.
`Cc1ccc(Cl)c2ccc(NC(=O)CCNC(N)=O)nc12` was tested, and the “% Inhibition” value was 38% and the Z score was -5.43.
In the case of `CCN1CCN(c2c(CN(CCOC)C(=O)CCc3ccccc3)c(C)nn2-c2cccc(F)c2)CC1`, the “% Inhibition” value is reported as -9% and the Z score is reported as 1.23.
For `O=C(NCCOc1ccccc1F)c1onc2c1CCCC2`, the “% Inhibition” value was 3% and the Z score was -0.5.
For `CC[C@H]1CN(c2nnc(C(=O)NCc3ccc(Cl)cc3)n2CC)CCO1`, the “% Inhibition” value was -4% and the Z score was 0.78.
In the case of `Cc1cn(C)nc1CNCc1cn2ccsc2n1`, the “% Inhibition” value is reported as -4% and the Z score is reported as 0.74.
For `Cc1cc(CNC(=O)N2CCNC(=O)[C@@H]2C)ccc1Cl`, the “% Inhibition” value was -14% and the Z score was 1.59.
`CC[C@H]1c2cccn2CCN1C(=O)c1cn2cc(Cl)cnc2n1` was tested, and the “% Inhibition” value was -21% and the Z score was 2.91.
For `Fc1ccccc1CCN1CCC[C@H](c2nnc3ccccn23)C1`, the “% Inhibition” value was -11% and the Z score was 1.35.
With `NC[C@H]1Cc2cc(F)cc(-c3cnc4ccccc4c3)c2O1` the “% Inhibition” value was 3% and the Z score was -0.65.
With `Nc1c2c(-c3ccccc3F)nc(N3CCN(Cc4ccc(Cl)cc4)CC3)nc2nn1-c1ccc(Cl)c(Cl)c1` the “% Inhibition” value was -13% and the Z score was 1.53.
For `COc1cc(C#N)ccc1O[C@@H](C)c1nnc(-c2cccs2)o1`, the “% Inhibition” value was -6% and the Z score was 0.91.
In the case of `O=C(Nc1nc2c(s1)CN(Cc1ccccc1)CC2)C1=NN(c2ccccc2)C(=O)CC1`, the “% Inhibition” value is reported as 34% and the Z score is reported as -3.45.
With `Cc1cccnc1C(=O)NCCn1cncn1` the “% Inhibition” value was -5% and the Z score was 0.54.
In the case of `CCC=C(C)C(=O)NCCc1ccccc1OC`, the “% Inhibition” value is reported as -8% and the Z score is reported as 0.87.
For `CC[C@H](NC(=O)c1cccc(-n2cnnc2)n1)c1ncnn1CC`, the “% Inhibition” value was -3% and the Z score was 0.44.
In the case of `CN1CCN(C(=O)c2cccc(-c3ccc4cc[nH]c4c3)c2)C[C@@H]1CCO`, the “% Inhibition” value is reported as 0% and the Z score is reported as 0.05.
With `CN(Cc1cnccn1)C(=O)c1ccccc1-c1ccccc1` the “% Inhibition” value was 2% and the Z score was -0.35.
`O=C(O)C1CCN([C@H]2CCN(c3ccccc3)C2)CC1` was tested, and the “% Inhibition” value was 0% and the Z score was 0.05.
`Cc1nc(C)c(-c2nc(-c3cccc(NC(=O)NC(C)C)c3)no2)s1` was tested, and the “% Inhibition” value was -8% and the Z score was 0.84.
`COc1ccc(C(C)=O)cc1CNC(C)(C)c1nc(C)cs1` was tested, and the “% Inhibition” value was -5% and the Z score was 0.74.
`Cc1ccccc1[C@H]1CCN(S(=O)(=O)c2c(N)noc2C)C1` was tested, and the “% Inhibition” value was -1% and the Z score was 0.1.
For `CC(=O)NC1CCCN(C(C(=O)NC2CC2)c2ccc(F)cc2)C1` (centres undefined), the “% Inhibition” value was -34% and the Z score was 3.97.
`CCC(CO)NC(=O)C(c1ccccc1)C1CC1` (centres undefined) was tested, and the “% Inhibition” value was -9% and the Z score was 1.25.
With `Cc1cc(N)n(CC(=O)N(C)Cc2nc(C3CC3)no2)n1` the “% Inhibition” value was -8% and the Z score was 1.17.
In the case of `CCCCCC(=O)N[C@@H](N1CCCCC1)C(Cl)(Cl)Cl`, the “% Inhibition” value is reported as -7% and the Z score is reported as 0.97.
In the case of `O=C(c1ccc(Cl)cc1F)N1CCN(c2ccc3[nH]ncc3c2)C(=O)C1`, the “% Inhibition” value is reported as 4% and the Z score is reported as -0.68.
`Cc1csc(C(=O)NCc2noc3c2COCC3)n1` was tested, and the “% Inhibition” value was -7% and the Z score was 1.39.
In the case of `CCOc1ccccc1C(CC)NC(=O)N1CCCNC(=O)C1C` (centres undefined), the “% Inhibition” value is reported as -5% and the Z score is reported as 0.68.
In the case of `OC[C@@]1(CCc2ccccc2)CCCN(c2ncccn2)C1`, the “% Inhibition” value is reported as -9% and the Z score is reported as 1.12.
In the case of `CNC(=O)c1nnsc1NC(=O)C(F)(F)F`, the “% Inhibition” value is reported as 3% and the Z score is reported as -0.48.
For `N#Cc1cnn2cc(CCOc3ccc(F)cc3)cnc12`, the “% Inhibition” value was -19% and the Z score was 3.2.
For `COC(=O)c1ccccc1NC(=O)NCCn1nnc2cc(S(=O)(=O)N(C)C)ccc21`, the “% Inhibition” value was 46% and the Z score was -7.77.
With `COC(=O)CC[C@]1(C)NC(=O)NC1=O` the “% Inhibition” value was 3% and the Z score was -0.61.
For `O=C(CN1CCn2nc(-c3ccccc3)cc2C1=O)NC1CCCCCC1`, the “% Inhibition” value was -1% and the Z score was 0.13.
With `CC(C)CC(=O)N1CCc2ccc(OC(C)C(=O)N3CCCC3)cc2C1c1cccc(F)c1` (centres undefined) the “% Inhibition” value was -13% and the Z score was 2.07.
In the case of `COc1cccc(C(=O)N2CCN(C(=O)c3nc[nH]c3C)CC2)c1`, the “% Inhibition” value is reported as -18% and the Z score is reported as 2.09.
`Cc1nc2c(c(N3CCCC3)n1)CCN(C(=O)Cc1n[nH]c(=O)[nH]1)C2` was tested, and the “% Inhibition” value was 3% and the Z score was -0.55.
In the case of `CC(C)(C)OC(=O)NCC(NC(=O)C1CC1(Cl)Cl)C1CC1` (centres undefined), the “% Inhibition” value is reported as 5% and the Z score is reported as -0.57.
In the case of `O=C(Cc1ccc(F)cc1Cl)N1C[C@H]2C[C@H](O)[C@H](O)C[C@H]2C1`, the “% Inhibition” value is reported as -4% and the Z score is reported as 0.61.
`C/C=C/Cc1nnc(C(=O)N2CCC[C@@](CO)(CC(C)C)C2)o1` was tested, and the “% Inhibition” value was 0% and the Z score was 0.02.
In the case of `CCCn1nnnc1CNC1CCCCC1C(C)(C)C` (centres undefined), the “% Inhibition” value is reported as 32% and the Z score is reported as -3.63.
With `COCCC[C@H]1CCCN(C(=O)c2cnc(O)cn2)C1` the “% Inhibition” value was -5% and the Z score was 0.65.
For `CN1C(=O)C(=O)N(CCS(=O)(=O)c2ccc(Cl)cc2)C1=O`, the “% Inhibition” value was -6% and the Z score was 0.91.
For `COc1ccc(OCCNCc2ccc(C(F)(F)F)nc2)cc1`, the “% Inhibition” value was -4% and the Z score was 0.64.
With `CCN(Cc1ccc(OC)cc1)Cc1cc(=O)c2c(C)ccc(C)c2[nH]1` the “% Inhibition” value was -6% and the Z score was 0.99.
With `Cn1ccc2c(-c3ccnc4[nH]ncc34)ccnc21` the “% Inhibition” value was 2% and the Z score was -0.33.
With `CCc1ccccc1NC(=O)Cn1cnc2nc(N3CCOCC3)sc2c1=O` the “% Inhibition” value was -10% and the Z score was 1.18.
For `CCN(CC)Cc1cccc(NC(=O)c2nccnc2C(=O)NCc2ccc(F)cc2)c1`, the “% Inhibition” value was -13% and the Z score was 1.23.
For `CCOC1CC2(CCN(Cc3c(C)nn(C)c3OC)C2)C1` (centres undefined), the “% Inhibition” value was -9% and the Z score was 1.43.
For `CC(=O)N1c2cc(S(=O)(=O)NCCc3ccccc3Cl)c(Br)cc2C[C@@H]1C`, the “% Inhibition” value was -5% and the Z score was 0.5.
`CCCn1ccnc1CNc1nc2c(s1)c(C)nn2C` was tested, and the “% Inhibition” value was -11% and the Z score was 2.21.
In the case of `CC(=O)N(CCc1noc(C2CCC2)n1)[C@H]1CCN(C(=O)c2ccn(C)n2)C1`, the “% Inhibition” value is reported as -21% and the Z score is reported as 1.81.
For `O=C(Nc1cccc2ccccc12)[C@@H]1CCCCN1S(=O)(=O)c1ccc(Cl)s1`, the “% Inhibition” value was -8% and the Z score was 0.93.
For `C[C@@H](CCc1ccc(F)c(F)c1)NC(=O)c1nccnc1C(N)=O`, the “% Inhibition” value was 2% and the Z score was -0.33.
With `O=C(Nc1cccnc1)c1ccc2c(c1)OCO2` the “% Inhibition” value was -14% and the Z score was 1.61.
